Test results published in PubChem BioAssay (NCATS).
Inconclusive means that the source gave no clear call. Such entries were picked first, then a sample of the others. For some assays here: Where the call is inconclusive, the potency comes from a doubtful curve fit. Active and inactive are the calls of the source. Calls follow the shape of the dose curve; as a rule, active = well fitted curve in the direction sought with a large enough effect; inconclusive = small, poorly fitted or top-dose-only effect, or another doubt; inactive = no such curve, though single readings can be large; an effect the other way counts as inactive or inconclusive.

Tests used:
[1] = qHTS assay to identify inhibitors of the type 1 interferon - major histocompatibility complex class I in skeletal muscle: Counter screen cell viability and HiBit confirmation (AID 1347412); settings: iHSKM muscle cells + IFN-b, HiBiT or CellTiter-Glo, 24 h; for activity change, negative = inhibition: at 45.9 µM (top of the series); as to activity change, negative = inhibition: % is scaled to controls: 0 for no effect and ±100 for the full control effect; as to all read-outs here: nearly all actives have a fitted effect of over 60% in size
Method in brief: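 Luminescence read-out: Nano-Glo HiBiT lytic signal from C-terminally HiBiT-tagged HLA-B in CRISPR-edited human myoblasts, plus CellTiter Glo ATP as viability counter screen. IFN-beta 4.0 ng/ml; 24 hrs treatment at 37 C, 5% CO2.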

[2] = qHTS to identify inhibitors of the type 1 interferon - major histocompatibility complex class I in skeletal muscle: primary screen against the NCATS Mechanism Interrogation Plate v5.0 (MIPE) Libary (AID 1347411); settings: iHSKM cells + IFN-b, HiBiT-tagged MHC-I luminescence, 24 h; activity change, negative = inhibition: at 45.8 µM (top of the series); also: nearly all actives have a fitted effect of over 65% in size;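 as to activity change, negative = inhibition: plate controls were vehicle for no effect and reference inhibitor for full effect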
Method in brief: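 HLA-B HiBit myoblasts, dexamethasone-free medium + 4 ng/ml IFN-b, 24 h compound, 11-pt 1:3 from 46 uM final. Readout: Nano-Glo HiBiT lytic luminescence after 10 min lysis, RT.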

[3] = biological target: Phospholipid hydroperoxide glutathione peroxidase GPX4 (Homo sapiens) (UniProt P36969); assay: Primary qHTS Assay for Inhibitors of Recombinant Selenoprotein Glutathione Peroxidase 4 (GPX4) (AID 1845192); settings: recombinant GPX4, GR-coupled NADPH fluorescence, 15 min; series mostly up to 50 µM; also: nearly all actives have a fitted effect of over 65% in size; as to activity change, negative = inhibition: % is scaled to controls: 0 for no effect and ±100 for the full control effect
Method in brief: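 Steps: GPX4 plus compound, 30 min RT; add GR/GSH/NADPH master mix; start with cumene hydroperoxide; read 340/450 nm fluorescence at 0 and 15 min. Finals were 200 nM GPX4, 1 mM GSH, 0.5 mM CHP, 0.5 mM NADPH, 100 nM GR.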

[4] = biological target: Glutathione peroxidase 1 (Homo sapiens) (UniProt P07203); assay: Primary qHTS Assay for Inhibitors of Recombinant Selenoprotein Glutathione Peroxidase 1 (GPX1) (AID 1845191); settings: recombinant GPX1, GR-coupled NADPH fluorescence, 15 min; series mostly up to 48.8 µM; also: nearly all actives have a fitted effect of over 65% in size
Method in brief: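 GR-coupled readout: NADPH consumption tracked by fluorescence, ex 340/em 450 nm, at t=0 and after 15 min at RT. Final mix 10 nM GPX1, 1 mM GSH, 0.5 mM CHP, 0.5 mM NADPH, 100 nM GR, 0.01% BSA, following 30 min enzyme–compound preincubation.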
Potency is read from the fitted curve at half-maximal effect; tags tell the direction and shape of the fitted curve.

Chain of UniProt P36969 (P36969 whole entry, looked up): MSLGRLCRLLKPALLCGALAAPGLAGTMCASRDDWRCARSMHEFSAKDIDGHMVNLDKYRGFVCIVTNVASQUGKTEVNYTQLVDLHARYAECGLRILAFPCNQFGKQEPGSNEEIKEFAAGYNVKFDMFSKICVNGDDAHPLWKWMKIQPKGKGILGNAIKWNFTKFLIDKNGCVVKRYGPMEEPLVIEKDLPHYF
Chain of UniProt P07203 (P07203 whole entry, looked up): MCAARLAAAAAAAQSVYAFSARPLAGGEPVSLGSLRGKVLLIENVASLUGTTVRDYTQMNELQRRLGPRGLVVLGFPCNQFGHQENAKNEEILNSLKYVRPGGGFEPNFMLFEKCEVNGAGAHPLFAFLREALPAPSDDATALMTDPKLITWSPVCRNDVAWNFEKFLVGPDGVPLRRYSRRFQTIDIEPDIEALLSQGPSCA

**Q.** Which activity change, negative = inhibition ([1]; Viability) does the source give for `CC(=O)NCC(=O)N1[C@@H]2CC[C@H]1c1ccc(Nc3ncc(C(F)(F)F)c(NC4CCC4)n3)cc12` here?
**A.** inactive: -29.6%

**Q.** With `CN1C/C=C/CCOc2cccc(c2)-c2ccnc(n2)Nc2cccc(c2)C1` as the molecule, how does the activity change, negative = inhibition ([1]; Viability) read?
**A.** inactive: -20%

**Q.** Which results are given for `C=CC(=O)Nc1cccc(Oc2nc(Nc3ccc(N4CCN(C)CC4)c(F)c3)nc3[nH]ccc23)c1`?
**A.** Potency ([1]; HiBiT): inconclusive: 27.9 µM [inhibitor, partial curve, poor fit]; Potency ([1]; Viability): inconclusive: 15.7 µM [cytotoxic, partial curve, poor fit]

**Q.** Which results are given for `NC(=O)C1=C(O)[C@@]2(O)C(=O)C3=C(O)c4c(O)cccc4C[C@H]3C[C@H]2CC1=O`?
**A.** Potency [2]: inconclusive: 2.34 µM [inhibitor, partial curve, poor fit]; Potency [3]: inconclusive: 16.1 µM [inhibitor, partial curve]

**Q.** What does the source list for `CO[C@H]1C[C@@H]2CC[C@@H](C)[C@@](O)(O2)C(=O)C(=O)N2CCCC[C@H]2C(=O)O[C@H]([C@H](C)C[C@@H]2CC[C@@H](OCCO)[C@H](OC)C2)CC(=O)[C@H](C)/C=C(/C)[C@@H](O)[C@@H](OC)C(=O)[C@H](C)C[C@H](C)/C=C\C=CC=C1C`?
**A.** activity change, negative = inhibition [2]: inconclusive: -77.1% [inhibitor]; Potency [3]: inconclusive: 18 µM [inhibitor, partial curve, poor fit]

**Q.** What does the source list for `CNC(=O)[C@H]1O[C@@H](n2cnc3c(NCc4cccc(I)c4)nc(Cl)nc32)[C@H](O)[C@@H]1O`?
**A.** activity change, negative = inhibition [2]: inconclusive: -65.9% [inhibitor]; Potency [3]: inactive

**Q.** For `CSc1ccc(C(=O)/C=C/c2cc(C)c(OC(C)(C)C(=O)O)c(C)c2)cc1`, which Potency [2] is on record?
**A.** inconclusive: 60 µM [inhibitor, partial curve]

**Q.** And the Potency [3]?
**A.** inconclusive: 39.8 µM [inhibitor, single point]

**Q.** For `COc1ccc(S(=O)(=O)N(C(C)=O)c2ccccc2/C=C/c2cc[n+]([O-])cc2)cc1`, which Potency [2] is on record?
**A.** inconclusive: 5.87 µM [inhibitor, partial curve]

**Q.** What about the Potency [3] of the same molecule?
**A.** inconclusive: 22.7 µM [inhibitor, single point]

**Q.** What does the source list for `CC(=O)c1cc2c(o1)C(=O)c1ccccc1C2=O`?
**A.** Potency [4]: active: 1.29 µM; Potency [3]: inconclusive: 10.1 µM [inhibitor, partial curve]; Potency ([1]; Viability): active: 0.394 µM

**Q.** With `Cc1ncsc1-c1ccc([C@H](C)NC(=O)[C@@H]2C[C@@H](O)CN2C(=O)[C@@H](NC(=O)COCCCOCCNC(=O)C[C@@H]2N=C(c3ccc(Cl)cc3)c3c(sc(C)c3C)-n3c(C)nnc32)C(C)(C)C)cc1` as the molecule, how does the Potency ([1]; HiBiT) read?
**A.** active: 0.394 µM

**Q.** What does the source list for `CC[C@@H]1[C@H](F)C(=O)N[C@@H]1COc1nccc2cc(C(N)=O)c(OC)cc12`?
**A.** Potency [2]: inconclusive: 16.5 µM [inhibitor, partial curve]; Potency [3]: active: 18 µM
